These are yes or no findings as the source states them, for the method shown. Binding seen in cells or lysates may run through a third protein. Some results given as binding are weak or reduced against the parent protein; the word gives no strength.
B1: ETV2 (protein, UniProt O00321 1-342)
chain: MDLWNWDEASPQEVPPGNKLAGLEGAKLGFCFPDLALQGDTPTATAETCWKGTSSSLASFPQLDWGSALLHPEVPWGAEPDSQALPWSGDWTDMACTAWDSWSGASQTLGPAPLGPGPIPAAGSEGAAGQNCVPVAGEATSWSRAQAAGSNTSWDCSVGPDGDTYWGSGLGGEPRTDCTISWGGPAGPDCTTSWNPGLHAGGTTSLKRYQSSALTVCSEPSPQSDRASLARCPKTNHRGPIQLWQFLLELLHDGARSSCIRWTGNSREFQLCDPKEVARLWGERKRKPGMNYEKLSRGLRYYYRRDIVRKSGGRKYTYRFGGRVPSLAYPDCAGGGRGAETQ
B2: FLI-1 (protein, UniProt Q01543 1-452)
chain: MDGTIKEALSVVSDDQSLFDSAYGAAAHLPKADMTASGSPDYGQPHKINPLPPQQEWINQPVRVNVKREYDHMNGSRESPVDCSVSKCSKLVGGGESNPMNYNSYMDEKNGPPPPNMTTNERRVIVPADPTLWTQEHVRQWLEWAIKEYSLMEIDTSFFQNMDGKELCKMNKEDFLRATTLYNTEVLLSHLSYLRESSLLAYNTTSHTDQSSRLSVKEDPSYDSVRRGAWGNNMNSGLNKSPPLGGAQTISKNTEQRPQPDPYQILGPTSSRLANPGSGQIQLWQFLLELLSDSANASCITWEGTNGEFKMTDPDEVARRWGERKSKPNMNYDKLSRALRYYYDKNIMTKVHGKRYAYKFDFHGIAQALQPHPTESSMYKYPSDISYMPSYHAHQQKVNFVPPHPSSMPVTSSSFFGAASQYWTSPTGGIYPNPNVPRHPNTHVPSHLGSYY
B3: ERG (protein, UniProt P11308 1-479)
chain: MASTIKEALSVVSEDQSLFECAYGTPHLAKTEMTASSSSDYGQTSKMSPRVPQQDWLSQPPARVTIKMECNPSQVNGSRNSPDECSVAKGGKMVGSPDTVGMNYGSYMEEKHMPPPNMTTNERRVIVPADPTLWSTDHVRQWLEWAVKEYGLPDVNILLFQNIDGKELCKMTKDDFQRLTPSYNADILLSHLHYLRETPLPHLTSDDVDKALQNSPRLMHARNTGGAAFIFPNTSVYPEATQRITTRPDLPYEPPRRSAWTGHGHPTPQSKAAQPSPSTVPKTEDQRPQLDPYQILGPTSSRLANPGSGQIQLWQFLLELLSDSSNSSCITWEGTNGEFKMTDPDEVARRWGERKSKPNMNYDKLSRALRYYYDKNIMTKVHGKRYAYKFDFHGIAQALQPHPPESSLYKYPSDLPYMGSYHAHPQKMNFVAPHPPALPVTSSSFFAAPNPYWNSPTGGIYPNTRLPTSHMPSHLGTYY
B4: GABPα (protein, UniProt Q06546 1-454)
chain: MTKREAEELIEIEIDGTEKAECTEESIVEQTYAPAECVSQAIDINEPIGNLKKLLEPRLQCSLDAHEICLQDIQLDPERSLFDQGVKTDGTVQLSVQVISYQGIEPKLNILEIVKPADTVEVVIDPDAHHAESEAHLVEEAQVITLDGTKHITTISDETSEQVTRWAAALEGYRKEQERLGIPYDPIQWSTDQVLHWVVWVMKEFSMTDIDLTTLNISGRELCSLNQEDFFQRVPRGEILWSHLELLRKYVLASQEQQMNEIVTIDQPVQIIPASVQSATPTTIKVINSSAKAAKVQRAPRISGEDRSSPGNRTGNNGQIQLWQFLLELLTDKDARDCISWVGDEGEFKLNQPELVAQKWGQRKNKPTMNYEKLSRALRYYYDGDMICKVQGKRFVYKFVCDLKTLIGYSAAELNRLVTECEQKKLAKMQLHGIAQPVTAVALATASLQTEKDN

Chains of the proteins cited; added tags and fusions are not shown.
UniProt Q8NFU7: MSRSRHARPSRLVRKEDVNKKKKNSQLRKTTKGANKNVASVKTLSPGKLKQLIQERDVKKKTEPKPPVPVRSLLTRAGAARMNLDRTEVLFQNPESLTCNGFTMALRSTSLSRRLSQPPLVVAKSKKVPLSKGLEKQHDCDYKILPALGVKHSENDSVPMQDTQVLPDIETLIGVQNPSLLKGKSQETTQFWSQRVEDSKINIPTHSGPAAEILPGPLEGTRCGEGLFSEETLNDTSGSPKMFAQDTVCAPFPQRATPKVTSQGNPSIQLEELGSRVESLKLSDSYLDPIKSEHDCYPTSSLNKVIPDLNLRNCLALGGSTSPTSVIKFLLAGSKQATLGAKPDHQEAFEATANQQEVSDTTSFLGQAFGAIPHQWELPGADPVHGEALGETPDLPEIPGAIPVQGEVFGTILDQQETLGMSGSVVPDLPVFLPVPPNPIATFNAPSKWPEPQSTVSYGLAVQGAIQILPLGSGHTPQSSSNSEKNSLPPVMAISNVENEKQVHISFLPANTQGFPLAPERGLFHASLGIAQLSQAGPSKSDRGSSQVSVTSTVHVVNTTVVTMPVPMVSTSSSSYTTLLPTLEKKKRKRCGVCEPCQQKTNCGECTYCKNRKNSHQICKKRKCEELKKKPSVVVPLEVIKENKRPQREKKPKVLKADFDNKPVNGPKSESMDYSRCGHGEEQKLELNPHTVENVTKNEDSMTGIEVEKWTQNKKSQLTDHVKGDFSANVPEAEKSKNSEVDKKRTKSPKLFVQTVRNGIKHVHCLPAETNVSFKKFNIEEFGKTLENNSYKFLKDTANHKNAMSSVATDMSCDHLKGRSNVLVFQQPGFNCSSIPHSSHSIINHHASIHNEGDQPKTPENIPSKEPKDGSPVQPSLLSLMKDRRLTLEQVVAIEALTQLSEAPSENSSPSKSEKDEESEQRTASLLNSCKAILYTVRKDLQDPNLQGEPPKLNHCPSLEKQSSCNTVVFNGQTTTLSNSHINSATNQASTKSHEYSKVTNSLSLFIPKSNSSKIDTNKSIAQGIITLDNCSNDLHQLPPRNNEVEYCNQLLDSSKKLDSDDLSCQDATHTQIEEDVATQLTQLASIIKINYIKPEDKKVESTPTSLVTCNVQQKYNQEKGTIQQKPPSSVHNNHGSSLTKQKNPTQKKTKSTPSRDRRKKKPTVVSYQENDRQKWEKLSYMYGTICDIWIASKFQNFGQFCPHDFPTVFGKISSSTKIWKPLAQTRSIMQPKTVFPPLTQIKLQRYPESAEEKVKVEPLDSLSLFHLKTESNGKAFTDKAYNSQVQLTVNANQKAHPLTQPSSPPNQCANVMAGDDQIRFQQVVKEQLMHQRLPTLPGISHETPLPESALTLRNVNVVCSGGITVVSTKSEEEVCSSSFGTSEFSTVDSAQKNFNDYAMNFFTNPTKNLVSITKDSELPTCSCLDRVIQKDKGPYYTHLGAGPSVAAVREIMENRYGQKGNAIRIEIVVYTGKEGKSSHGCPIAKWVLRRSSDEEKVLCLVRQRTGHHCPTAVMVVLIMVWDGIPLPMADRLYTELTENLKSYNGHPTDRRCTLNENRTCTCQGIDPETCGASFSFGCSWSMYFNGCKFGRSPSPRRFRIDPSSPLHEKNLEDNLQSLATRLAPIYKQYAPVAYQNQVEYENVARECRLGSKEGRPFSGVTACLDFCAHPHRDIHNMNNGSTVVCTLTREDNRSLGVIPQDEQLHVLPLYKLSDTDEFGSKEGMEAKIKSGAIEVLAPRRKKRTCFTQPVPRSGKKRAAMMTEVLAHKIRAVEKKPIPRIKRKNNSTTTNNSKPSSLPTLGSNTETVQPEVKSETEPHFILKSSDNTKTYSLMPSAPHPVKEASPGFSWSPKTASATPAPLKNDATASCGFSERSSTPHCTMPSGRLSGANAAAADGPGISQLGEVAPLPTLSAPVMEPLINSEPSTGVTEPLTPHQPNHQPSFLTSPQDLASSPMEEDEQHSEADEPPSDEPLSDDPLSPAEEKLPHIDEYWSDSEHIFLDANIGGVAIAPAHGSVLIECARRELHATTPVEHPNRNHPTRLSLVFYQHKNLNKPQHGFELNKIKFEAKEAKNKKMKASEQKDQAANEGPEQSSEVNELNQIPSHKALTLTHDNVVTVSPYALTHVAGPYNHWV

Experiments:
TET2-FLAG = TET2-FLAG (UniProt Q6N021); assay: co-IP; COS-7 cells expressing TET1-FLAG or TET2-FLAG (adenovirus) with an ETS protein (adenovirus or plasmid), 48 h; lysis in 50 mmol/L Tris-HCl pH 7.4, 150 mmol/L NaCl, 1% Triton X-100, 1 mmol/L EDTA; anti-FLAG immunoprecipitation, elution with FLAG peptide, western blot for FLAG and the ETS proteins
TET1-FLAG = TET1-FLAG (UniProt Q8NFU7); assay: as above

Binder | binding (TET2-FLAG) | binding (TET1-FLAG)
B1 | binds | binds
B2 | binds | no binding
B3 | binds | no binding
B4 | no binding | no binding
